The test system of the assay is MIWI (PIWIL1) piRISC loaded with L1MC piRNA (30 nt). Put plainly: pre-steady-state target cleavage rate (min^-1); MIWI and MILI are mouse PIWI proteins and EfPiwi is from a freshwater sponge; tags in brackets are library labels; higher = faster piRNA-guided slicing of the target. Conditions: guide: L1MC piRNA 5'p-UAACUAAAUACUAUGCAAGCUGUAGGUCCU
In short, it runs like this: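 Cleave-'n-Seq: 1 nM active affinity-purified piRISC with one synthetic guide and 0.1 nM transcribed, DNA-blocked target RNA library were mixed, with or without 500 nM GTSF1 partner protein, in HEPES–potassium acetate buffer at 33 °C for 0–8 or 0–960 min. Uncleaved targets were sequenced and normalised to depth and to weakly complementary targets, three trials were pooled, and k3 was capped at 0.0001 min^-1. The pre-steady-state cleavage rate was fitted […].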

Setting [1] is: auxiliary factor: 500 nM mouse GTSF1.
Setting [2] is: auxiliary factor: none (no GTSF1).

± gives the standard deviation. The entries are a selection whose mix differs from that of the whole data set.

As for UCCUGGUACGGCUUGCAUAGUAUUUAGUUA, the “pre-steady-state target cleavage rate” value was 0.533 ± 0.048 under setting [1] and 0.0699 ± 0.013 under setting [2].

For the sequence UCCUGGAACAGCCUUGCAUAGUAUUUAGUUA, the “pre-steady-state target cleavage rate” value under setting [1] came to 0.851 ± 0.051 and the “pre-steady-state target cleavage rate” value under setting [2] came to 0.0663 ± 0.012.

UCCACCUACAGCUUGCAAUGUAUUUAGUAA: the “pre-steady-state target cleavage rate” value under setting [1] is 0.241 ± 0.022 and the “pre-steady-state target cleavage rate” value under setting [2] came out at 0.00289 ± 0.0021.

For the sequence UCCACCUACGCUUGCAUAGUAUUUAGUUA, the “pre-steady-state target cleavage rate” value reads like this: under setting [1], 0.998 ± 0.04; under setting [2], 0.0451 ± 0.0077.

Turning to UCCUGGAACUGCUUGCAUAGUAAUUAGUUA, the “pre-steady-state target cleavage rate” value runs as follows: under setting [1], 0.278 ± 0.019; under setting [2], 0.0119 ± 0.0034.

Regarding UCCUCCAUCAGCUUGCAUAGUAUUUAGAAA, the “pre-steady-state target cleavage rate” value under setting [1] was determined as 0.169 ± 0.031 and the “pre-steady-state target cleavage rate” value under setting [2] was 0.00618 ± 0.0023.

As for UCCUGGAACUGCUUGCAUUGUAUUUAGUUA, the “pre-steady-state target cleavage rate” value under setting [1] amounted to 0.361 ± 0.025 and the “pre-steady-state target cleavage rate” value under setting [2] amounted to 0.0171 ± 0.0056.

For AGGACCUACAGCUGCAUAGUAUUUAGUUA, the “pre-steady-state target cleavage rate” value under setting [1] came to 1.15 ± 0.068 and the “pre-steady-state target cleavage rate” value under setting [2] was 0.0107 ± 0.0029.

In the case of UCCUGCUACAGCUAGCAUACUAUUUAGUUA, the “pre-steady-state target cleavage rate” value reads like this: under setting [1], 0.529 ± 0.038; under setting [2], 0.017 ± 0.0038.

Turning to UCCUGGUACAGCUUGCAUAGUUUUUUGUUA, the “pre-steady-state target cleavage rate” value under setting [1] came to 0.183 ± 0.032 and the “pre-steady-state target cleavage rate” value under setting [2] came to 0.0195 ± 0.0058.

In the case of UCCUCCUUCAGCUUGCAUAGUAAUUAGUUA, the “pre-steady-state target cleavage rate” value is, setting by setting: under setting [1], 0.688 ± 0.038; under setting [2], 0.0201 ± 0.005.

In the case of UCCUCCUACAGCAAGCAUAGUAUUUAGUUA, the “pre-steady-state target cleavage rate” value reads like this: under setting [1], 1.21 ± 0.072; under setting [2], 0.00412 ± 0.0014.

On to UGGACCUACACCUUGCAUAGUAUUUACAAA, for which the “pre-steady-state target cleavage rate” value amounted to 0.249 ± 0.038 under setting [1] and 0.008 ± 0.0019 under setting [2].

For the sequence UCCACCUACAGCUUGCAUAGUAAUUACUUA, the “pre-steady-state target cleavage rate” value under setting [1] came to 0.23 ± 0.035 and the “pre-steady-state target cleavage rate” value under setting [2] worked out at 0.00816 ± 0.0029.

As to UCCACCUUCAGCUUGCAUAGUAAUUAGUUA, the “pre-steady-state target cleavage rate” value is, setting by setting: under setting [1], 0.6 ± 0.051; under setting [2], 0.018 ± 0.0044.

Turning to UCCAGCUACAGCUUGCAUAGUAUUAAGUUA, the “pre-steady-state target cleavage rate” value reads like this: under setting [1], 0.558 ± 0.043; under setting [2], 0.015 ± 0.0026.

UCCUCCUACAGCUAGCAUAGUAUUUAGAUA: the “pre-steady-state target cleavage rate” value turned out to be 0.339 ± 0.042 under setting [1] and 0.00473 ± 0.0022 under setting [2].

As to UCCUGGUAGUCCUUGCAUAGUAUUUAGUUA, the “pre-steady-state target cleavage rate” value under setting [1] was determined as 0.0925 ± 0.011 and the “pre-steady-state target cleavage rate” value under setting [2] was 0.0106 ± 0.0024.

For the sequence UCCUGGAACAGCUUGCAUAGUCAUUUAGUUA, the “pre-steady-state target cleavage rate” value reads like this: under setting [1], 0.017 ± 0.0053; under setting [2], 0.00564 ± 0.0024.

As for UCCUGCUUCAGCAUGCAUAGUAUUUAGUUA, the “pre-steady-state target cleavage rate” value under setting [1] is 1.32 ± 0.078 and the “pre-steady-state target cleavage rate” value under setting [2] was determined as 0.0171 ± 0.0036.

Regarding UGGACCUACAGCUUGGAUAGUAUAUAGUUA, the “pre-steady-state target cleavage rate” value came out at 0.785 ± 0.051 under setting [1] and 0.0287 ± 0.0073 under setting [2].

On to UCCACCUAGAGCUUGCAUAGUAUUUACAAA, for which the “pre-steady-state target cleavage rate” value by setting is: under setting [1], 0.294 ± 0.04; under setting [2], 0.00242 ± 0.0019.

For AGGACCUACAGCUUGGAUAGUAUUUACUUA, the “pre-steady-state target cleavage rate” value reads like this: under setting [1], 0.478 ± 0.054; under setting [2], 0.0287 ± 0.0043.

Regarding AGGACCUACAGCUUGCAUAGUAUUUAGAAA, the “pre-steady-state target cleavage rate” value amounted to 0.597 ± 0.066 under setting [1] and 0.0225 ± 0.0082 under setting [2].

In the case of UCCUGCUUCAGCUUGCAUACUAUUUAGUUA, the “pre-steady-state target cleavage rate” value by setting is: under setting [1], 0.371 ± 0.016; under setting [2], 0.0289 ± 0.0066.

As for UCCUGGAUGAGCUUGCAUAGUAUUUGAGUUA, the “pre-steady-state target cleavage rate” value under setting [1] was 0.616 ± 0.07 and the “pre-steady-state target cleavage rate” value under setting [2] turned out to be 0.017 ± 0.0049.

As to UCCUGGAUCAGCUUGCAUAGAAUUUAGUAA, the “pre-steady-state target cleavage rate” value under setting [1] was found to be 0.207 ± 0.033 and the “pre-steady-state target cleavage rate” value under setting [2] amounted to 0.0126 ± 0.0049.

On to UCCUGGAACAUGCUUGCAUAGUAUUUAGUUA, for which the “pre-steady-state target cleavage rate” value under setting [1] was found to be 0.696 ± 0.028 and the “pre-steady-state target cleavage rate” value under setting [2] stood at 0.0566 ± 0.011.

UCCUGGAACAGCUAGCAUAGUAUUUACUUA: the “pre-steady-state target cleavage rate” value reads like this: under setting [1], 0.217 ± 0.027; under setting [2], 0.0126 ± 0.0027.

As to UCCACCUAGAGCUUGCAUACUAUUUAGUUA, the “pre-steady-state target cleavage rate” value runs as follows: under setting [1], 0.391 ± 0.052; under setting [2], 0.0225 ± 0.0041.

On to UCCAGGAACAGCUUGCAUAGUAUUUACAAA, for which the “pre-steady-state target cleavage rate” value is, setting by setting: under setting [1], 0.328 ± 0.041; under setting [2], 0.00665 ± 0.0019.

For the sequence UCCACGUACACCUUGCAUAGUAUUUAGUUA, the “pre-steady-state target cleavage rate” value under setting [1] worked out at 1.13 ± 0.036 and the “pre-steady-state target cleavage rate” value under setting [2] worked out at 0.0578 ± 0.0093.

For AGGACCUACAGCUUGCAUAGUAUAUUAGUUA, the “pre-steady-state target cleavage rate” value is, setting by setting: under setting [1], 1.18 ± 0.097; under setting [2], 0.0609 ± 0.015.

On to UCGACCUACAGCUUGCAUAGUAUUAAGAUA, for which the “pre-steady-state target cleavage rate” value was 0.248 ± 0.029 under setting [1] and 0.00627 ± 0.0027 under setting [2].

For AGGACCUACUGCUUGCAUAGUAUUUAGAUA, the “pre-steady-state target cleavage rate” value under setting [1] amounted to 0.471 ± 0.048 and the “pre-steady-state target cleavage rate” value under setting [2] amounted to 0.0411 ± 0.0086.

As for UCCUGCAAGAGCUUGCAUAGUAUUUAGUUA, the “pre-steady-state target cleavage rate” value is, setting by setting: under setting [1], 1.01 ± 0.097; under setting [2], 0.0403 ± 0.01.

As to UCCUCCUAUAGCUUGCAUAGUAUUUAGUUA, the “pre-steady-state target cleavage rate” value reads like this: under setting [1], 0.705 ± 0.024; under setting [2], 0.0464 ± 0.0082.

In the case of UCCUGGUACUGCUUGGAUAGUAUUUAGUUA, the “pre-steady-state target cleavage rate” value under setting [1] was determined as 0.391 ± 0.078 and the “pre-steady-state target cleavage rate” value under setting [2] is 0.0193 ± 0.0036.

As for UCCUGGAACAGCAAGCAUAGUAUUUAGUAA, the “pre-steady-state target cleavage rate” value is, setting by setting: under setting [1], 0.469 ± 0.041; under setting [2], 0.00301 ± 0.003.

On to UCCACCUACAGCUUGCAUAGUCAUUUAGUUA, for which the “pre-steady-state target cleavage rate” value was determined as 0.0237 ± 0.0078 under setting [1] and 0.00374 ± 0.0029 under setting [2].

Regarding UGGACGAACAGCUUGCAUAGUAUUUAGUUA, the “pre-steady-state target cleavage rate” value came out at 1.17 ± 0.036 under setting [1] and 0.0856 ± 0.015 under setting [2].

As for AGGACCUACAGCAUGCAUAGAAUUUAGUUA, the “pre-steady-state target cleavage rate” value was 0.461 ± 0.058 under setting [1] and 0.00954 ± 0.0022 under setting [2].

In the case of UCCUGGAUCAGCUUGCAUAGUAUUAUGUUA, the “pre-steady-state target cleavage rate” value reads like this: under setting [1], 0.28 ± 0.032; under setting [2], 0.00874 ± 0.0027.

For UCCUGGUUCACCUUGCAUAGUAUUUAGUUA, the “pre-steady-state target cleavage rate” value under setting [1] stood at 0.34 ± 0.046 and the “pre-steady-state target cleavage rate” value under setting [2] came out at 0.0124 ± 0.003.

With UCCUGCUACAGCAUUGCAUAGUAUUUAGUUA, the “pre-steady-state target cleavage rate” value is, setting by setting: under setting [1], 0.941 ± 0.074; under setting [2], 0.0182 ± 0.0044.

As to UGCACCUACAGCUUGCAUAGUAUUUAGAUA, the “pre-steady-state target cleavage rate” value runs as follows: under setting [1], 0.499 ± 0.043; under setting [2], 0.0446 ± 0.013.

For the sequence UCGACGAACAGCUUGCAUAGUAUUUAGUAA, the “pre-steady-state target cleavage rate” value came out at 0.962 ± 0.062 under setting [1] and 0.0577 ± 0.013 under setting [2].

With AGGACCUACAGCUUGCAUAGUAUUAGUUA, the “pre-steady-state target cleavage rate” value was 0.385 ± 0.053 under setting [1] and 0.00372 ± 0.003 under setting [2].

As to UCCUGGUACAGCUUGCAUAGAAAUUAGUUA, the “pre-steady-state target cleavage rate” value reads like this: under setting [1], 0.0644 ± 0.015; under setting [2], 0.00499 ± 0.0025.

Regarding UCGAGCUACAGCUUGCAUAGUAUUAAGUUA, the “pre-steady-state target cleavage rate” value was 0.869 ± 0.06 under setting [1] and 0.0216 ± 0.0048 under setting [2].

These data come from the supplement of paper PMC10338343.
